# From the supplement of paper PMC8728848
# The other results are listed elsewhere or left out.
# Experiments:
# Assay in all cases: glycan array binding signal (z-score within array); higher = stronger binding
# Settings in all cases: glycan notation: IUPAC condensed, linker removed
# [1] = biological target: Gal(b1-4)GlcNAc(b1-3)Gal(b1-4)GlcNAc(b1-6)[Gal(b1-3)]GalNAc
# In short: (§1)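 Glycan array data were curated from 3228 arrays in the Consortium for Functional Glycomics database and kept only where the protein sequence was available. Glycan names were converted to IUPAC-condensed notation, and columns mapping to the same glycan were averaged. The binding signal is a within-array Z-score, averaged across arrays of the same protein sequence at different concentrations or buffers and across linkers. Negative Z-scores can be read as non-binding.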
# [2] = biological target: Gal(b1-4)GlcNAc(b1-3)Gal(b1-4)[Fuc(a1-3)]GlcNAc(b1-3)Gal(b1-4)[Fuc(a1-3)]GlcNAc
# In short: as §1
# [3] = biological target: Gal(b1-4)GlcNAc(b1-3)GalNAc
# In short: as §1
# [4] = biological target: Gal(b1-4)GlcNAc(b1-3)[Fuc(a1-3)GlcNAc(b1-6)]Gal(b1-4)Glc
# In short: as §1
# [5] = biological target: Gal(b1-4)GlcNAc(b1-3)[Gal(b1-4)GlcNAc(b1-6)]Gal(b1-4)GlcNAc
# In short: as §1
# [6] = biological target: Gal(b1-4)GlcNAc(b1-3)[GlcNAc(b1-6)]Gal(b1-4)GlcNAc
# In short: as §1
# [7] = biological target: Gal(b1-4)GlcNAc(b1-6)Gal(b1-4)GlcNAc
# In short: as §1
# [8] = biological target: Gal(b1-4)GlcNAc(b1-6)GalNAc
# In short: as §1
# [9] = biological target: Gal(b1-4)GlcNAc(b1-6)[Gal(b1-3)]GalNAc
# In short: as §1
# [10] = biological target: Gal(b1-4)GlcNAc(b1-6)[Gal(b1-4)GlcNAc(b1-3)]GalNAc
# In short: as §1
# [11] = biological target: Gal(b1-4)GlcNAc6P
# In short: as §1
# [12] = biological target: Gal(b1-6)Gal
# In short: as §1
# [13] = biological target: Gal3S(b1-3)GalNAc
# In short: as §1
# [14] = biological target: Gal3S(b1-3)GlcNAc
# In short: as §1
# [15] = biological target: Gal3S(b1-3)[Fuc(a1-4)]GlcNAc
# In short: as §1
# [16] = biological target: Gal3S(b1-4)Glc
# In short: as §1
# [17] = biological target: Gal3S(b1-4)Glc6S
# In short: as §1
# [18] = biological target: Gal3S(b1-4)GlcNAc
# In short: as §1
# [19] = biological target: Gal3S(b1-4)[Fuc(a1-3)]Glc6S
# In short: as §1
# [20] = biological target: Gal3S(b1-4)[Fuc(a1-3)]GlcNAc
# In short: as §1
# [21] = biological target: Gal3S(b1-4)[Fuc(a1-3)]GlcNAc6S
# In short: as §1
# [22] = biological target: Gal3S4S(b1-4)GlcNAc
# In short: as §1
# [23] = biological target: Gal3S6S(b1-4)GlcNAc
# In short: as §1
# [24] = biological target: Gal3S6S(b1-4)GlcNAc6S
# In short: as §1
# [25] = biological target: Gal4S(b1-4)GlcNAc
# In short: as §1
# [26] = biological target: Gal4S6S(b1-4)GlcNAc
# In short: as §1
# [27] = biological target: Gal6P(b1-4)GlcNAc
# In short: as §1
# [28] = biological target: Gal6S(b1-3)GlcNAc
# In short: as §1
# [29] = biological target: Gal6S(b1-3)GlcNAc6S
# In short: as §1
# [30] = biological target: Gal6S(b1-4)Glc
# In short: as §1
# [31] = biological target: Gal6S(b1-4)Glc6S
# In short: as §1
# [32] = biological target: Gal6S(b1-4)GlcNAc
# In short: as §1
# [33] = biological target: Gal6S(b1-4)GlcNAc6S
# In short: as §1
# [34] = biological target: GalNAc(a1-3)Gal
# In short: as §1
# [35] = biological target: GalNAc(a1-3)GalNAc
# In short: as §1
# [36] = biological target: GalNAc(a1-3)GalNAc(b1-3)Gal(a1-4)Gal(b1-4)Glc
# In short: as §1
# [37] = biological target: GalNAc(a1-3)GalNAc(b1-3)Gal(a1-4)Gal(b1-4)GlcNAc
# In short: as §1
# [38] = biological target: GalNAc(b1-3)Gal
# In short: as §1
# [39] = biological target: GalNAc(b1-3)Gal(a1-4)Gal(b1-4)GlcNAc
# In short: as §1
# [40] = biological target: GalNAc(b1-3)Gal(a1-4)Gal(b1-4)GlcNAc(b1-3)Gal(b1-4)Glc
# In short: as §1
# [41] = biological target: GalNAc(b1-3)Gal(a1-6)Gal(b1-4)Glc
# In short: as §1
# [42] = biological target: GalNAc(b1-3)GalNAc
# In short: as §1
# [43] = biological target: GalNAc(b1-3)GlcNAc
# In short: as §1
# [44] = biological target: GalNAc(b1-4)Gal(b1-4)Glc
# In short: as §1
# [45] = biological target: GalNAc(b1-4)GlcNAc
# In short: as §1
# [46] = biological target: GalNAc(b1-4)GlcNAc(b1-2)Man
# In short: as §1
# [47] = biological target: GalNAc(b1-4)GlcNAc(b1-2)Man(a1-3)[GalNAc(b1-4)GlcNAc(b1-2)Man(a1-6)]Man(b1-4)GlcNAc(b1-4)GlcNAc
# In short: as §1
# [48] = biological target: GalNAc(b1-4)GlcNAc(b1-3)GalNAc(b1-4)GlcNAc
# In short: as §1
# [49] = biological target: GalNAc(b1-4)GlcNAc6S
# In short: as §1
# [50] = biological target: GalNAc(b1-6)GalNAc
# In short: as §1
# [51] = biological target: GalNAc3S(b1-4)GlcNAc
# In short: as §1
# [52] = biological target: GalNAc3S(b1-4)GlcNAc3S
# In short: as §1
# [53] = biological target: GalNAc3S(b1-4)[Fuc(a1-3)]GlcNAc
# In short: as §1
# [54] = biological target: GalNAc4S6S(b1-4)GlcNAc
# In short: as §1
# [55] = biological target: GalNAc6S(b1-4)GlcNAc
# In short: as §1
# [56] = biological target: Glc(a1-4)Glc
# In short: as §1
# [57] = biological target: Glc(a1-4)Glc(a1-4)Glc(a1-4)Glc
# In short: as §1
# [58] = biological target: Glc(a1-6)Glc(a1-6)Glc
# In short: as §1
# [59] = biological target: Glc(a1-6)Glc(a1-6)Glc(a1-6)Glc
# In short: as §1
# [60] = biological target: Glc(b1-4)Glc
# In short: as §1
# [61] = biological target: Glc(b1-6)Glc
# In short: as §1
# [62] = biological target: GlcA(b1-3)Gal
# In short: as §1
# [63] = biological target: GlcA(b1-3)GlcNAc
# In short: as §1
# [64] = biological target: GlcA(b1-6)Gal
# In short: as §1
# [65] = biological target: GlcA3S(b1-3)Gal(b1-4)GlcNAc(b1-2)Man
# In short: as §1
# [66] = biological target: GlcA3S(b1-3)Gal(b1-4)GlcNAc(b1-3)Gal(b1-4)Glc
# In short: as §1
# [67] = biological target: GlcNAc(a1-3)Gal(b1-4)GlcNAc
# In short: as §1
# [68] = biological target: GlcNAc(a1-4)Gal(b1-3)GlcNAc
# In short: as §1
# [69] = biological target: GlcNAc(a1-4)Gal(b1-4)GalNAc
# In short: as §1
# [70] = biological target: GlcNAc(a1-4)Gal(b1-4)GlcNAc
# In short: as §1
# [71] = biological target: GlcNAc(a1-4)Gal(b1-4)GlcNAc(b1-3)Gal(b1-4)Glc
# In short: as §1
# [72] = biological target: GlcNAc(a1-4)Gal(b1-4)GlcNAc(b1-3)Gal(b1-4)GlcNAc
# In short: as §1
# [73] = biological target: GlcNAc(a1-4)Gal(b1-4)GlcNAc(b1-3)Gal(b1-4)GlcNAc(b1-3)Gal(b1-4)GlcNAc
# In short: as §1
# [74] = biological target: GlcNAc(a1-4)Gal(b1-4)GlcNAc(b1-3)Gal(b1-4)[Fuc(a1-3)]GlcNAc(b1-3)Gal(b1-4)[Fuc(a1-3)]GlcNAc
# In short: as §1
# [75] = biological target: GlcNAc(a1-6)Gal(b1-4)GlcNAc
# In short: as §1
binder,measurement,setting,value
PX9961J-bvu-499-24-499 (Bacteroides vulgatus) (protein) LNTDPSTAVPSDDAIKNIDDAQVALNGIYRLASAHSYYGDNYLYYADCRGEDVQARINKGAGRRVSPYYFFDVTADDNFNITLVWNQPYKVIHQANSLIEKLDAGNAGNARPEEVARIKSEALAMRGLALFDLTRLFGMPYTLDNGASLGVPIEIQTTLEDHAPERNTVAQCYEQVLKDLNDALGGLTKEKHDAYMNYWSVKALLSRVYLYMNDNENALKCAEEVINDNGGIYRLFTHDEYPSVWGKDFNSESLFEFYFTMSEPSGGSGGEGAPMVYADNVKDWNNLILTKAYLDLLNEDPEDVRHVFPHLPENAVADTLPVAAKGQPKYLIKYPGKSGSVTDAVSTVNPQDNDLCILRLSEVYLNAAEAAFKIGNTEKALTYLNAIVTRANPAKSVTSADLSLERILKERRKELVGEGHAFFDYMRNGKSVDRSGGWHLTMPEDARVIAPSDPRVALPIPQTEIDANPNIVQNPR,glycan array binding signal (z-score),[1],-0.305
same,glycan array binding signal (z-score),[2],-0.774
same,glycan array binding signal (z-score),[3],-0.279
same,glycan array binding signal (z-score),[4],-0.409
same,glycan array binding signal (z-score),[5],-0.048
same,glycan array binding signal (z-score),[6],-0.457
same,glycan array binding signal (z-score),[7],-0.357
same,glycan array binding signal (z-score),[8],-0.362
same,glycan array binding signal (z-score),[9],-0.563
same,glycan array binding signal (z-score),[10],0.035
same,glycan array binding signal (z-score),[11],0.028
same,glycan array binding signal (z-score),[12],-0.443
same,glycan array binding signal (z-score),[13],-0.266
same,glycan array binding signal (z-score),[14],-0.157
same,glycan array binding signal (z-score),[15],-0.514
same,glycan array binding signal (z-score),[16],-0.605
same,glycan array binding signal (z-score),[17],0.048
same,glycan array binding signal (z-score),[18],-0.391
same,glycan array binding signal (z-score),[19],-0.142
same,glycan array binding signal (z-score),[20],0.069
same,glycan array binding signal (z-score),[21],0.483
same,glycan array binding signal (z-score),[22],-0.338
same,glycan array binding signal (z-score),[23],0.184
same,glycan array binding signal (z-score),[24],0.007
same,glycan array binding signal (z-score),[25],0.055
same,glycan array binding signal (z-score),[26],0.387
same,glycan array binding signal (z-score),[27],-0.613
same,glycan array binding signal (z-score),[28],-0.703
same,glycan array binding signal (z-score),[29],-0.11
same,glycan array binding signal (z-score),[30],0.033
same,glycan array binding signal (z-score),[31],-0.108
same,glycan array binding signal (z-score),[32],0.068
same,glycan array binding signal (z-score),[33],-0.714
same,glycan array binding signal (z-score),[34],2.34
same,glycan array binding signal (z-score),[35],-0.088
same,glycan array binding signal (z-score),[36],0.279
same,glycan array binding signal (z-score),[37],-0.437
same,glycan array binding signal (z-score),[38],-0.536
same,glycan array binding signal (z-score),[39],-0.52
same,glycan array binding signal (z-score),[40],-0.31
same,glycan array binding signal (z-score),[41],0.002
same,glycan array binding signal (z-score),[42],-0.061
same,glycan array binding signal (z-score),[43],0.212
same,glycan array binding signal (z-score),[44],0.463
same,glycan array binding signal (z-score),[45],-0.478
same,glycan array binding signal (z-score),[46],-0.661
same,glycan array binding signal (z-score),[47],-0.36
same,glycan array binding signal (z-score),[48],0.269
same,glycan array binding signal (z-score),[49],1.13
same,glycan array binding signal (z-score),[50],-0.45
same,glycan array binding signal (z-score),[51],0.029
same,glycan array binding signal (z-score),[52],-0.378
same,glycan array binding signal (z-score),[53],-0.545
same,glycan array binding signal (z-score),[54],-0.218
same,glycan array binding signal (z-score),[55],2.75
same,glycan array binding signal (z-score),[56],-0.454
same,glycan array binding signal (z-score),[57],0.411
same,glycan array binding signal (z-score),[58],-0.436
same,glycan array binding signal (z-score),[59],-0.173
same,glycan array binding signal (z-score),[60],-0.447
same,glycan array binding signal (z-score),[61],-0.125
same,glycan array binding signal (z-score),[62],0.262
same,glycan array binding signal (z-score),[63],-0.101
same,glycan array binding signal (z-score),[64],0.034
same,glycan array binding signal (z-score),[65],-0.376
same,glycan array binding signal (z-score),[66],-0.707
same,glycan array binding signal (z-score),[67],0.074
same,glycan array binding signal (z-score),[68],-0.209
same,glycan array binding signal (z-score),[69],0.368
same,glycan array binding signal (z-score),[70],-0.235
same,glycan array binding signal (z-score),[71],0.01
same,glycan array binding signal (z-score),[72],-0.271
same,glycan array binding signal (z-score),[73],-0.176
same,glycan array binding signal (z-score),[74],0.182
same,glycan array binding signal (z-score),[75],-0.482
